Reference: article PMC4336329 (PLoS ONE, 2015)
Among all 310,000 compounds or so, about 14,000 (4.5%) showed an effect of 50% or more. The effect is printed as a negative number. The list shows a part of the results.

Each compound was assayed against human ether-à-go-go-related gene (hERG) potassium channel (human, UniProt Q12809) (assay: primary screen, population patch clamp on CHO cells stably expressing hERG).
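Also: peak tail current of the secondary pulse compared with the same well before compound.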

human ether-à-go-go-related gene (hERG) potassium channel, sequence (Q12809 whole entry, looked up): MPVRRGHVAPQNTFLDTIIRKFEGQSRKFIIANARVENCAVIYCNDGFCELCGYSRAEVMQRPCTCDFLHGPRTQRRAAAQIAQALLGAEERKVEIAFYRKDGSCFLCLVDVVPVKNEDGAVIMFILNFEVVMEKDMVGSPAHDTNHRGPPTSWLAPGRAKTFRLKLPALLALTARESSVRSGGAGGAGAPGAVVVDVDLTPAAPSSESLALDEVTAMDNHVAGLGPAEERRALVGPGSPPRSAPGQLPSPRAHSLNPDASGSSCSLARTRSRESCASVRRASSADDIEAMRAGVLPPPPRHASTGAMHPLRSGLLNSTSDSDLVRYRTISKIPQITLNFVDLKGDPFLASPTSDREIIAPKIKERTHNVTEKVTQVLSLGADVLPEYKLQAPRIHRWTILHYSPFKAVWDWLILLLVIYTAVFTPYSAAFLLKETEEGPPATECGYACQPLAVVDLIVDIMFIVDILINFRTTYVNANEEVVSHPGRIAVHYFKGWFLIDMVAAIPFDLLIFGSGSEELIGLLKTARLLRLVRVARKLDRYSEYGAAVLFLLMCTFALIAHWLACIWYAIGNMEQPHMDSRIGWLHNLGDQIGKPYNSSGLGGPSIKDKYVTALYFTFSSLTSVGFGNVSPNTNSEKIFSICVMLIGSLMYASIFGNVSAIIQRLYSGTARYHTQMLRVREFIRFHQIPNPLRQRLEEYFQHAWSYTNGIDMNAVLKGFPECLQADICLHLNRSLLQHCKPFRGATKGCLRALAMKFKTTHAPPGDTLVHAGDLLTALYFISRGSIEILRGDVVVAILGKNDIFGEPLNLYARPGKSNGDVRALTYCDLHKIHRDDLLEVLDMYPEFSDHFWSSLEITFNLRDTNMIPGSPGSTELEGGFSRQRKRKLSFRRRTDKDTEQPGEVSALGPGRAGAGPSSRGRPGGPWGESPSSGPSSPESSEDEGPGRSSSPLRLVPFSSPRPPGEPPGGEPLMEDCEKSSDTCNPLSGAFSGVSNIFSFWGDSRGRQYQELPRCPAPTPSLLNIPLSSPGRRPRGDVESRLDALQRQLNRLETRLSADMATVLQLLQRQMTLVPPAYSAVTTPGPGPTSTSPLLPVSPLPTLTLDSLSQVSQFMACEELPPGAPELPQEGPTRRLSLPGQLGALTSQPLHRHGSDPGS

Going from Cn1c(=O)c2c(nc(OCc3ccc4c(c3)OCO4)n2Cc2ccccc2Cl)n(C)c1=O to CC(C)Oc1ccccc1C1CC(=O)Nc2cc3c(cc21)OCO3 (stereo not shown), the “hERG current change (%, negative = inhibition) at 10uM” value rises from 2.56% to 7.23%.

Going from BrC(/C=C\c1ccccc1)=N/Nc1nc(N2CCOCC2)nc(N2CCOCC2)n1 to CCOc1cc(N2CCOCC2)c(OCC)cc1NC(=O)C1=NN(c2cccc(C)c2)C(=O)CC1, the “hERG current change (%, negative = inhibition) at 10uM” value rises from -39% to -3.8%.

First: CCN(CC)C(=O)c1ccc(C(=O)c2ccccc2)cc1
Second: CN(C)C(=O)C(OC(=O)c1ccc2ccccc2n1)c1ccccc1 (stereo not shown)
The “hERG current change (%, negative = inhibition) at 10uM” value of the first is lower: -0.232% for the first, 8.58% for the second.

Compared with CN(C)/C=N/c1nc2nccc(-c3cccs3)n2n1, O=C(c1cnn2c(C(F)(F)F)cc(-c3cccs3)nc12)N1CCOCC1 is lower in “hERG current change (%, negative = inhibition) at 10uM” value: 3.53% for the first, -5.7% for the second.

Compared with Cc1ccc(N2CCN(S(=O)(=O)c3ccc(C)cc3)CC2)cc1, CC1CN(S(=O)(=O)c2ccc(-c3nc4ccccc4s3)cc2)CC(C)O1 (stereo not shown) is higher in “hERG current change (%, negative = inhibition) at 10uM” value: 14.5% for the first, 15.9% for the second.

Compared with CC(C)(C)OC(=O)NNC(=O)Nc1ccccc1C(F)(F)F, Cc1[nH]c2ccccc2c1C(=O)C(C)OC(=O)c1ccccc1NCCO (stereo not shown) is lower in “hERG current change (%, negative = inhibition) at 10uM” value: 16.5% for the first, 15% for the second.

Compared with CCCN(Cc1cc2cc(C)ccc2[nH]c1=O)C(=O)c1cccc([N+](=O)[O-])c1, CC(=O)c1ccc(COC(=O)Cc2ccc([N+](=O)[O-])cc2)cc1 is higher in “hERG current change (%, negative = inhibition) at 10uM” value: -7.02% for the first, 14.4% for the second.

First: CCOC(=O)C(Cc1ccccc1)NC(=O)Cn1nnc(-c2ccccc2)n1 (stereo not shown)
Second: CN(C(=O)COC(=O)CCCc1c[nH]c2ccccc12)c1c(N)n(Cc2ccccc2)c(=O)[nH]c1=O
The “hERG current change (%, negative = inhibition) at 10uM” value of the first is lower: -35.5% for the first, -5.36% for the second.

Going from OCC[C@@H]1C[C@H](O)[C@@H](O)[C@@]2(OCc3ccccc32)O1 to CC(=O)Nc1nnc(SCC(=O)N2CCN(Cc3ccccc3)CC2)s1, the “hERG current change (%, negative = inhibition) at 10uM” value falls from 15.4% to 8.94%.

First: COc1ccc(/C=N/N(C)C2=NS(=O)(=O)c3ccccc32)cc1
Second: COc1ccc(N(CC(=O)N2CCc3ccccc3C2)S(=O)(=O)c2c(C)nn(C)c2C)cc1
The “hERG current change (%, negative = inhibition) at 10uM” value of the first is higher: 7.81% for the first, -24% for the second.

First: O=C(O)CSc1ncn[nH]1
Second: O=C(O)CC1(CC(=O)NCc2ccc(F)cc2)CCCCC1
The “hERG current change (%, negative = inhibition) at 10uM” value of the first is lower: -9.23% for the first, 19.7% for the second.

Compared with CN1Cc2c(N)cccc2C(c2ccccc2)C1.O=C(O)/C=C\C(=O)O (stereo not shown), O=C(c1ccccc1[N+](=O)[O-])n1cnc2ccccc21 is lower in “hERG current change (%, negative = inhibition) at 10uM” value: -9.57% for the first, -14.7% for the second.

First: O=C(c1ccc(Cl)cc1)[C@@H]1[C@@H]2C(=O)N(c3ccc(Cl)cc3)C(=O)[C@@H]2C2c3ccccc3C=NN21 (stereo partly shown)
Second: CCc1cccc(NS(=O)(=O)c2ccc(-n3cccn3)cc2)c1
The “hERG current change (%, negative = inhibition) at 10uM” value of the first is higher: 14.4% for the first, 11.5% for the second.

First: Cc1ccc(C(=O)COC(=O)c2cnccn2)cc1
Second: CN(C)c1ccc(C(=O)OCC(=O)NC2CCCCC2)cc1
The “hERG current change (%, negative = inhibition) at 10uM” value of the first is lower: 5.92% for the first, 10.3% for the second.

Compared with Cc1c(Cl)cccc1NC(=O)CSc1nnc(C)n1-c1ccccc1, O=S(=O)(c1ccccc1)N1CCN=C1SCc1c(F)cccc1Cl is higher in “hERG current change (%, negative = inhibition) at 10uM” value: -34.9% for the first, 2.9% for the second.

Compared with Cc1ccc(NC(=O)CN2CCCC2c2cccs2)cc1S(=O)(=O)N1CCCCC1 (stereo not shown), CCC(=O)Nc1cccc(-c2ccc(N3CCN(C)CC3)nn2)c1 is higher in “hERG current change (%, negative = inhibition) at 10uM” value: -9.63% for the first, 1.1% for the second.

Compared with Cc1ccc(S(=O)(=O)Nc2cc(C(C)C)c(O)cc2C)cc1, Cc1cccc(OCC(=O)Nc2cc(C)c(C)cc2O)c1 is higher in “hERG current change (%, negative = inhibition) at 10uM” value: -12.8% for the first, 4.31% for the second.

First: COc1ccc(-c2cc(C(=O)Nc3ccc(C)cc3)no2)cc1
Second: CCOc1ccc(-c2nc(N)nc(C)c2-c2ccc(OC)c(OC)c2)c(O)c1
The “hERG current change (%, negative = inhibition) at 10uM” value of the first is lower: 4.81% for the first, 10.7% for the second.

First: CCn1c(=O)cc(OCC(=O)Nc2cc(C)ccn2)c2ccccc21
Second: O=c1[nH]c(=O)n(-c2ccccc2F)c(O)c1/C=C1\C=Nc2ccccc21
The “hERG current change (%, negative = inhibition) at 10uM” value of the first is higher: -0.0401% for the first, -9.28% for the second.

Compared with Br.Fc1cc(Cl)ccc1NC1=NCCCCC1, Cc1noc(C)c1C(=O)N1CCN(C(=O)c2sc3cc(Cl)ccc3c2Cl)CC1 is lower in “hERG current change (%, negative = inhibition) at 10uM” value: 19.5% for the first, -47.4% for the second.

Going from C/C(=N\NC(=O)C(=O)N/N=C(\C)c1cccc(O)c1)c1cccc(O)c1 to O=C(N/N=C/c1ccncc1)c1cc([N+](=O)[O-])cc([N+](=O)[O-])c1, the “hERG current change (%, negative = inhibition) at 10uM” value falls from 18.5% to -11.1%.

In the case of Cc1noc(C)c1S(=O)(=O)NCCc1ccc(S(N)(=O)=O)cc1, the “hERG current change (%, negative = inhibition) at 10uM” value was 8.33%.
